According to the supplement of paper PMC3334620:
Whole data set: some 33,000 sequences, median “E-score (-0.5 to 0.5)” near -0.016, cut for the highest 2% near 0.31. Some of the results follow.

target: Cst6 (UniProt P40535); test: PBM E-score (8-mer binding enrichment) (E-score (-0.5 to 0.5)); higher = stronger / more preferred TF binding; most listed sequences are background and not binding sites; details: protein concentration: 200 nM; construct: GST-DNA-binding domain
Protocol: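 Universal 'all 10-mer' protein binding microarrays (Agilent AMADID 015681) probed with GST-tagged S. cerevisiae TFs (full-length or DBD) made by in vitro transcription/translation (PURExpress), about 100-200 nM. Bound TF was detected with fluorescent anti-GST. Each ungapped 8-mer (which stands for itself and its reverse complement) is scored by the PBM enrichment score (E-score), a modified Wilcoxon-Mann-Whitney statistic from -0.5 to +0.5, computed with the Universal PBM Analysis Suite. Scale: above 0.35 generally sequence-specific binding.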

First: ACGCCTCT
Second: CGCCGATA
The “PBM E-score” value of the first is higher: 0.00882 for the first, -0.0288 for the second.

First: ACCGAAGC
Second: ATCGCGCG
The “PBM E-score” value of the first is lower: -0.16 for the first, 0.268 for the second.

Going from ACGAAGGC to CGAGCCTC, the “PBM E-score” value falls from -0.0356 to -0.223.

Going from CCGCAGGA to CACTGGAA, the “PBM E-score” value rises from -0.234 to -0.0184.

Going from GACAAGCA to ATTCTTTC, the “PBM E-score” value rises from -0.139 to 0.0948.

Going from GAGCGAGA to AAGCTCGT, the “PBM E-score” value falls from 0.149 to -0.0807.

First: ACTGGAAA
Second: GGCCTGAC
The “PBM E-score” value of the first is higher: 0.108 for the first, -0.18 for the second.

Going from ACATTAGG to CTTGACAA, the “PBM E-score” value rises from -0.138 to 0.0373.

First: GAGGCGAA
Second: CGAGGGTC
The “PBM E-score” value of the first is higher: 0.0301 for the first, -0.34 for the second.

Going from ATGTGGGA to GCTGTACA, the “PBM E-score” value falls from -0.164 to -0.197.

Going from AATTTGCG to GAACATTC, the “PBM E-score” value falls from 0.0719 to -0.053.

Going from GGACGCGA to AGCTGTAT, the “PBM E-score” value falls from -0.156 to -0.18.

First: ACCTTACC
Second: TAGCAACA
The “PBM E-score” value of the first is lower: 0.0399 for the first, 0.179 for the second.

Compared with CCGCTAGC, CGAGTTTC is higher in “PBM E-score” value: -0.299 for the first, -0.0728 for the second.

First: ACGGCGTG
Second: AGTGGTTG
The “PBM E-score” value of the first is higher: 0.314 for the first, 0.0902 for the second.

First: GAAGGACC
Second: GAATAGCC
The “PBM E-score” value of the first is lower: -0.26 for the first, -0.203 for the second.

Compared with AACAGCGA, ATGAACAA is higher in “PBM E-score” value: -0.204 for the first, 0.225 for the second.

Going from AATAGGCA to GAGGCTAC, the “PBM E-score” value falls from 0.148 to -0.303.

First: AGTGCTTG
Second: CGAATGTC
The “PBM E-score” value of the first is lower: -0.0818 for the first, 0.00819 for the second.

Compared with ATTTGCCG, CTCTCCTA is lower in “PBM E-score” value: 0.162 for the first, 0.0971 for the second.

First: AACATACG
Second: AATGCCCG
The “PBM E-score” value of the first is higher: 0.253 for the first, -0.269 for the second.

Going from AAGCACCA to ACCAATAG, the “PBM E-score” value falls from -0.239 to -0.271.

Going from CCTCTGCC to ACTCTACA, the “PBM E-score” value rises from -0.258 to -0.0195.

Going from AGCACGCT to CACTCCGA, the “PBM E-score” value rises from -0.162 to -0.0718.

Compared with TCCATGCA, AAAGGTCG is lower in “PBM E-score” value: 0.067 for the first, -0.135 for the second.

Going from CTTACGTC to TCATTAAA, the “PBM E-score” value falls from 0.421 to 0.352.

First: TCTTAAAA
Second: CTTAGTAA
The “PBM E-score” value of the first is lower: -0.00317 for the first, 0.174 for the second.

Compared with GTTATGGA, ACTGTAGG is lower in “PBM E-score” value: 0.205 for the first, 0.102 for the second.

First: ACGAAGGA
Second: ACCGACCT
The “PBM E-score” value of the first is higher: 0.0355 for the first, -0.142 for the second.

Going from CTCCACGC to CCCTAGTA, the “PBM E-score” value falls from -0.124 to -0.212.

Going from CATGGTGA to GCGTCCCC, the “PBM E-score” value falls from 0.193 to -0.317.

First: AGGGTGGC
Second: CGCTCGAG
The “PBM E-score” value of the first is lower: -0.189 for the first, 0.0728 for the second.

Going from CTACTCCA to GACTGAGA, the “PBM E-score” value rises from -0.239 to 0.00784.

First: ACTCGCCT
Second: GCTACTTA
The “PBM E-score” value of the first is higher: -0.027 for the first, -0.0566 for the second.

Going from ACTAACGG to ATGGCGTA, the “PBM E-score” value rises from -0.0532 to 0.24.

Going from GATAACAA to GAAGACTA, the “PBM E-score” value falls from 0.166 to -0.0371.

Going from GATGGCCC to CATGGCTC, the “PBM E-score” value rises from -0.106 to 0.085.

Going from CCCAGGGC to GGTCAAAA, the “PBM E-score” value rises from -0.337 to 0.126.

Going from CATGTGAA to CCAATGTC, the “PBM E-score” value rises from -0.0897 to 0.0141.

Compared with ACCGGACC, AACAGGAT is higher in “PBM E-score” value: -0.247 for the first, 0.0183 for the second.

Compared with GGGCCAAC, CTTTGGCA is higher in “PBM E-score” value: -0.264 for the first, -0.23 for the second.

First: AAAAGGAA
Second: GACTCTGC
The “PBM E-score” value of the first is higher: 0.139 for the first, -0.139 for the second.

First: GGAATGTA
Second: CTACCTAA
The “PBM E-score” value of the first is lower: -0.0683 for the first, 0.153 for the second.
